Results from patent publication US11178870B2 (priority 2017, dated 2021).

How the values were obtained:
Magnaporthe grisea = format: in vivo; conditions: class of control value, Table 7
Phytophthora infestans = format: in vivo; conditions: class of control value, Table 7
[1] = tested on: Colletotrichum orbiculare; conditions: 250 ppm spray, 2.5 ml/pot; investigated 6 to 10 days after inoculation

| SMILES | Test A control value (blast on rice) (Magnaporthe grisea) | Test F control value (late blight on tomato) (Phytophthora infestans) | Test H control value (anthracnose on cucumber) [1] |
| --- | --- | --- | --- |
| CCn1c(-c2c(F)cccc2Cl)c(-n2cc(F)cn2)ccc1=O [Compound 378] | H (H shows the control value more than 50%) | H (H shows the control value more than 50%) | H (H shows the control value more than 50%) |
| Cc1cnn(-c2ccc(=O)n(C)c2-c2ccc(F)cc2F)c1 [Compound 406] | L (L shows the control value of 50% or less) | L (L shows the control value of 50% or less) | L (L shows the control value of 50% or less) |
| O=c1c(Cl)cc(-n2cc(F)cn2)c(-c2ccc(F)cc2Br)n1CC(F)F [Compound 448] | H (H shows the control value more than 50%) | L (L shows the control value of 50% or less) | L (L shows the control value of 50% or less) |
| O=c1ccc(-n2cc(F)cn2)c(-c2ccc(F)cc2Br)n1CC(F)F [Compound 447] | H (H shows the control value more than 50%) | L (L shows the control value of 50% or less) | L (L shows the control value of 50% or less) |
| Cc1ccsc1-c1cc(Br)c(=O)n(CC(F)F)c1-c1c(F)cccc1F [Compound 446] | H (H shows the control value more than 50%) | L (L shows the control value of 50% or less) | H (H shows the control value more than 50%) |
